# According to PubChem BioAssay (Tox21):
# Calls of active or inactive are those of the source. Unless noted, calls follow the shape of the dose curve; as a rule, active = well fitted curve in the direction sought with a large enough effect in the repeat runs; inconclusive = weak or mixed curves; inactive = no such curve, though single readings can be large; an effect the other way counts as inactive or inconclusive.
# How the values were obtained:
# [1] = qHTS assay to identify small molecule antagonists of the androgen receptor (AR) signaling pathway using the MDA cell line - cell viability counter screen (AID 743041; also: potency is read from the fitted curve at half-maximal effect; nearly all actives have a fitted effect of over 45% in size); conditions: MDA-kb2 viability, CellTiter-Fluor, 16 h, cells co-treated with R1881 androgen agonist; viability change, negative = cytotoxic: at 70.3 µM (top of the series)
# Procedure, shortened: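 MDA-kb2 AR-luc human breast carcinoma cells (MMTV-luciferase, AR/GR responsive) were treated with compounds plus R1881 agonist for 16 h at 37 °C. Viability was read as CellTiter-Fluor fluorescence in the same wells as the reporter assay.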
# [2] = qHTS assay to identify small molecule antagonists of the thyroid receptor (TR) signaling pathway (AID 743065); also: potency is read from the fitted curve at half-maximal effect; nearly all actives have a fitted effect of over 55% in size
# Procedure, shortened: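 GH3.TRE-Luc rat pituitary cells carrying two TR response elements driving luciferase were plated for 4 h, given compound plus 1 nM T3 (final), and incubated 23.5 h at 37 C. ONE-Glo luminescence measured reporter inhibition; CellTiter-Fluor fluorescence tracked cytotoxicity.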
# [3] = qHTS assay to identify aromatase inhibitors - cell viability counter screen (AID 743084); conditions: MCF-7 aro ERE viability, CellTiter-Fluor, 24 h; activity change, negative = cytotoxicity: at 70.3 µM (top of the series);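 also: cells stimulated with testosterone during compound exposure; % is scaled to controls: 0 for no effect and ±100 for the full control effect; nearly all actives have a fitted effect of over 55% in size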
# [4] = qHTS assay to identify small molecule antagonists of the vitamin D receptor (VDR) signaling pathway - cell viability counter screen (AID 743225); conditions: VDR-bla HEK293T viability, CellTiter-Glo luminescence, 16 h; viability change, negative = cytotoxic: at 61 µM (top of the series) unless noted; also: % is scaled to controls: 0 for no effect and ±100 for the full control effect; nearly all actives have a fitted effect of over 50% in size
# Procedure, shortened: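 Viability counter screen run in the same wells as the beta-lactamase reporter assay: HEK 293T VDR-UAS-bla cells, 16 h compound exposure at 37C with 3 nM (final) 1-alpha,25-dihydroxyvitamin D3. CellTiter-Glo luminescence, 30 min, room temperature.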
# [5] = qHTS assay to identify small molecule agonists of the estrogen receptor beta (ER-beta) signaling pathway - cell viability counter screen (AID 1259380); also: % is scaled to controls: 0 for no effect and ±100 for the full control effect; nearly all actives have a fitted effect of over 30% in size
# Procedure, shortened: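 CellTiter-Glo read, 30 min RT, same wells as bla assay; cells ER-beta-UAS-bla HEK293T; 16 hr compound, 37C; medium 2% charcoal-stripped FBS.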
# [6] = qHTS assay for small molecule agonists of the p53 signaling pathway - cell viability (AID 651633; calls by dose curve; also: nearly all actives have a fitted effect of over 30% in size; also: potency is read from the fitted curve at half-maximal effect)
# Procedure, shortened: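 p53RE-bla cells, seeded at 4,000 per well and rested 5 h at 37 C/5% CO2, received compounds in DMSO for 16 h at 37 C. CellTiter-Glo was then added, and luminescence was read after 30 min at room temperature to gauge cytotoxicity.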
# [7] = molecular target: Estrogen receptor (Homo sapiens) (UniProt P03372); assay: qHTS assay to identify small molecule antagonists of the estrogen receptor alpha (ER-alpha) signaling pathway (AID 743069; active = well fitted curve in the direction sought with a large enough effect in the signal ratio in the repeat runs, not every such curve was filed as active; inconclusive = weak or mixed curves, or effect the other way; inactive = no such curve, though single readings can be large or run the other way; the % refers to the signal ratio; also: potency is read from the fitted curve at half-maximal effect); conditions: HEK293 ER-alpha-UAS-bla, beta-lactamase ratio, antagonist mode; activity, negative = inhibition: at 69.4 µM (top of the series) unless noted
# Procedure, shortened: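 HEK293 cells stably carrying an ER-alpha-UAS-bla beta-lactamase reporter were pre-cultured overnight in 2% charcoal-stripped FBS medium. Test compounds in DMSO were added together with 17beta-estradiol for 18 hr at 37C. Read-out was fluorescence after 2 hr with LiveBLAzer B/G FRET substrate at room temperature.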
# [8] = qHTS assay to identify small molecule antagonists of the estrogen receptor alpha (ER-alpha) signaling pathway using the BG1 cell line (AID 743080; calls by dose curve;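 also: BG1 cells stimulated with 17beta-estradiol alongside compound; nearly all actives have a fitted effect of over 25% in size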; also: potency is read from the fitted curve at half-maximal effect); conditions: BG1Luc4E2 ERE-luciferase antagonist mode, luminescence; activity change, negative = inhibition: at 70.3 µM (top of the series) unless noted
# Procedure, shortened: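 Readout is ONE-Glo luminescence, taken 30 min at room temperature after reagent addition, preceded by a CellTiter-Fluor viability read; BG1-Luc-4E2 cells had received compound and 17beta-estradiol for 21.5 h at 37 C.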
# [9] = molecular target: Nuclear receptor subfamily 1 group I member 2 (Rattus norvegicus) (UniProt Q9R1A7); assay: Rat pregnane X receptor (rPXR) activation by small molecules, qHTS assay (AID 1346983); conditions: rPXR luciferase reporter cells, One-Glo luminescence, 24 h; max activation: hits give high values; also: nearly all actives have a fitted effect of over 20% in size; also: potency is read from the fitted curve at half-maximal effect; as to max activation: % is scaled to controls: 0 for no effect and ±100 for the full control effect
# Procedure, shortened: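 Cell-based rPXR luciferase reporter assay, 2,000 cells per well, rested 5hr at 37 C before compound addition in DMSO, then 24 hr at 37 C. One-Glo reagent was added and luminescence read after 30 min at room temperature.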
# [10] = molecular target: Vitamin D3 receptor (Homo sapiens) (UniProt P11473); assay: qHTS assay to identify small molecule antagonists of the vitamin D receptor (VDR) signaling pathway (AID 743223; active = well fitted inhibition curve with a large enough effect in the signal ratio in the repeat runs, not every such curve was filed as active; inconclusive = weak or mixed curves, or effect the other way; inactive = no such curve, though single readings can be large or run the other way; the % refers to the signal ratio; also: % is scaled to controls: 0 for no effect and ±100 for the full control effect); conditions: VDR-UAS-bla HEK293T, beta-lactamase FRET ratio, 16 h; activity change, negative = inhibition: at 61 µM (top of the series) unless noted
# Procedure, shortened: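 Beta-lactamase reporter read-out: FRET substrate fluorescence after 2 h at room temperature, following 16 h exposure of VDR-bla cells to test compound plus 3 nM (final) 1alpha,25-dihydroxyvitamin D3 agonist at 37C.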
# [11] = qHTS assay to identify small molecule agonists of the progesterone receptor (PR) signaling pathway - cell viability counter screen (AID 1346799; calls by dose curve; also: nearly all actives have a fitted effect of over 45% in size; also: potency is read from the fitted curve at half-maximal effect)
# Procedure, shortened: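 HEK293T PR-UAS-bla, 3,000 cells/well, 2% charcoal-stripped FBS; 6 h settle, compound 16 h at 37C/5% CO2; LiveBLAzer 2 h RT, then CellTiter-Glo 30 min RT, luminescence read.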
# [12] = molecular target: Estrogen receptor beta (Homo sapiens) (UniProt Q92731); assay: qHTS assay to identify small molecule antagonists of the estrogen receptor beta (ER-beta) signaling pathway (AID 1259378; active = well fitted inhibition curve with a large enough effect in the signal ratio in the repeat runs, not every such curve was filed as active; inconclusive = weak or mixed curves, or effect the other way; inactive = no such curve, though single readings can be large or run the other way; the % refers to the signal ratio; also: % is scaled to controls: 0 for no effect and ±100 for the full control effect); conditions: ER-beta-UAS-bla HEK293T, beta-lactamase FRET ratio, 16 h; activity, negative = inhibition: at 92.4 µM (top of the series) unless noted
# Procedure, shortened: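 ER-beta-UAS-bla HEK293T (GripTite) cells in 2% charcoal-stripped FBS medium were preincubated 6 hr at 37C, dosed with compound, then stimulated with 1 nM E2 (final) for 16 hr; beta-lactamase reporter read by B/G FRET fluorescence after 2 hr substrate loading.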
# [13] = tested on: thyroid hormone receptor (rat, GH3 cells); assay: qHTS assay to identify small molecule agonists of the thyroid receptor (TR) signaling pathway (AID 743066; calls by dose curve; also: % is scaled to controls: 0 for no effect and ±100 for the full control effect); conditions: GH3.TRE-Luc cells, TR agonist luciferase, 24 h; activation: at 83.9 µM (top of the series) unless noted
# [14] = molecular target: Estrogen receptor (Homo sapiens) (UniProt P03372); assay: qHTS assay to identify small molecule agonists of the estrogen receptor alpha (ER-alpha) signaling pathway (AID 743075; calls by dose curve; also: potency is read from the fitted curve at half-maximal effect); conditions: HEK293 ER-alpha-UAS-bla, beta-lactamase FRET ratio, 18 h; activation: at 70.1 µM (top of the series) unless noted
# [15] = qHTS assay to identify small molecule antagonists of the peroxisome proliferator-activated receptor gamma (PPARg) signaling pathway - cell viability counter screen (AID 743194); conditions: PPARg-bla HEK293H viability, CellTiter-Glo luminescence, 17 h; Potency: co-treated with 50 nM rosiglitazone unless noted; activity change, negative = cytotoxicity: at 62.6 µM (top of the series), co-treated with 50 nM rosiglitazone unless noted; also: potency is read from the fitted curve at half-maximal effect; nearly all actives have a fitted effect of over 55% in size
# Procedure, shortened: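 PPARg-UAS-bla HEK293H cells were plated, rested 5 h at 37 C, then treated with compounds plus rosiglitazone (50 nM final) for 17 h at 37 C; viability was then read by CellTiter-Glo luminescence after 30 min at room temperature.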
# Tags tell the direction and shape of the fitted curve or compound fluorescence and quenching.
# UniProt Q9R1A7, sequence (Q9R1A7 whole entry, looked up): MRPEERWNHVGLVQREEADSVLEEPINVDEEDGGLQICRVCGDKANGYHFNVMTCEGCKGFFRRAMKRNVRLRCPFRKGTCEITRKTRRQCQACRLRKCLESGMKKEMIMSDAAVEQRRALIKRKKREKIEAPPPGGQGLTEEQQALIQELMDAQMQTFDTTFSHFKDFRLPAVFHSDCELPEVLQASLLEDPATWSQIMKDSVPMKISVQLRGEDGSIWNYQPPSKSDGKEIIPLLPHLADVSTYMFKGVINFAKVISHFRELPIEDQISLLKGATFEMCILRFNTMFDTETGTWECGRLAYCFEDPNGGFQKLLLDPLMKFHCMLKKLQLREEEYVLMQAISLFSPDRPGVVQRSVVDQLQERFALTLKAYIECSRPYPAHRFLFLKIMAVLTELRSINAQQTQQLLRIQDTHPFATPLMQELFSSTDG
# UniProt P03372, sequence (P03372 whole entry, looked up): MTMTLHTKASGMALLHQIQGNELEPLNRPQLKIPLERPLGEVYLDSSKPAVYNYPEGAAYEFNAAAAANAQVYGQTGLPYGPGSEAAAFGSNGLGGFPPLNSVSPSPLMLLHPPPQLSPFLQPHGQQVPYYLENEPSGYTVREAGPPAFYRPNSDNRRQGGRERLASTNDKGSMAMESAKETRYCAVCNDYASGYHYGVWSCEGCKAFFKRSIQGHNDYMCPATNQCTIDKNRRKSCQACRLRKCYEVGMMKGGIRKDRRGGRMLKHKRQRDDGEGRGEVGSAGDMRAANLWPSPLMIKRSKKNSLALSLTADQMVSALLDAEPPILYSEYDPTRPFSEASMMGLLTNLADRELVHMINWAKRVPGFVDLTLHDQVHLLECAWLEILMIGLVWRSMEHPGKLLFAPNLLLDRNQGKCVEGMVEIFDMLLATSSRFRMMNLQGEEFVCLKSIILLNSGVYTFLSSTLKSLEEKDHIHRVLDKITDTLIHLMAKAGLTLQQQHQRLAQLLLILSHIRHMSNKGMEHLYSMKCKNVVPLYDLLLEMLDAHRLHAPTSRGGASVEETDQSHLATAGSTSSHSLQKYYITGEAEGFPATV
# UniProt Q92731, sequence (Q92731 whole entry, looked up): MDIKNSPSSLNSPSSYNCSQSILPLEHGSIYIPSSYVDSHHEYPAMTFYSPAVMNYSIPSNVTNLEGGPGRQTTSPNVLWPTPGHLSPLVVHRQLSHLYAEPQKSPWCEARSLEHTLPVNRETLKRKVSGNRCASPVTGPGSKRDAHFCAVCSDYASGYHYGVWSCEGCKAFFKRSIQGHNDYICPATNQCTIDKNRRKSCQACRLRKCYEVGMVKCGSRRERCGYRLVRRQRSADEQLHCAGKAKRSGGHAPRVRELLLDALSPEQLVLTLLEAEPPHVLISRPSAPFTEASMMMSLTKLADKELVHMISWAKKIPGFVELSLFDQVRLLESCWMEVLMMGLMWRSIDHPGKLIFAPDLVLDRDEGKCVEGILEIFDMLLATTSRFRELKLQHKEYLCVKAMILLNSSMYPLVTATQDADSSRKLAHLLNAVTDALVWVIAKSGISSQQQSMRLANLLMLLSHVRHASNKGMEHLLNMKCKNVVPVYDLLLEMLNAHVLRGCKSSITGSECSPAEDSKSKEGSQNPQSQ
# UniProt P11473, sequence (P11473 whole entry, looked up): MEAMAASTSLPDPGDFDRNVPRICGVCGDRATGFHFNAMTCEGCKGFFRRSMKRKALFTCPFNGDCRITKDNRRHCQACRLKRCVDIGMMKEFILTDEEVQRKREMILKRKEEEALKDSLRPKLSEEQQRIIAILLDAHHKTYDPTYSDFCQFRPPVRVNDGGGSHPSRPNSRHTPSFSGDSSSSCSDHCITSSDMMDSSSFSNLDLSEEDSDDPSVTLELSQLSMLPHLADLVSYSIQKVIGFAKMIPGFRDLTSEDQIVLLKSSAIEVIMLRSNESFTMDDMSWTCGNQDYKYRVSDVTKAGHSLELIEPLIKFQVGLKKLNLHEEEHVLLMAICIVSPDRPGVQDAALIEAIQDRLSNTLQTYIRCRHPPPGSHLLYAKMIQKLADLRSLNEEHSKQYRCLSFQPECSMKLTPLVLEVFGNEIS
compound,measurement,setting,value
CCC(=O)O[C@H]1[C@@H](N2CCCCC2)C[C@H]2[C@@H]3CC[C@H]4C[C@H](OC(C)=O)[C@@H](N5CCCCC5)C[C@]4(C)[C@H]3CC[C@@]21C,Potency,[1],"inconclusive: 8.41 µM [cytotoxic, partial curve, poor fit]"
same,Potency,[2],"inconclusive: 33.5 µM [inhibitor, single point]"
same,Potency,[3],inactive
CC(=O)OCC1=C(C(=O)O)N2C(=O)[C@@H](N)[C@H]2SC1,Potency,[4],inactive
same,"activity change, negative = cytotoxicity",[5],inactive: 0.632% [at 19 µM]
C[C@]12CC[C@H](O)C[C@H]1CC[C@@H]1[C@@H]2CC[C@]2(C)[C@@H](c3ccc(=O)oc3)C[C@H]3O[C@]132,Potency,[6],active: 0.75 µM
same,Potency,[2],"inconclusive: 26.6 µM [inhibitor, partial curve, poor fit]"
same,Potency,[7],"inconclusive: 9.52 µM [fluorescent, full curve, poor fit]"
same,Potency,[8],"inconclusive: 1.06 µM [rising, partial curve]"
same,Potency,[9],"inconclusive: 1 µM [activator, full curve, poor fit]"
O=C(CCl)NCO,"activity change, negative = inhibition",[10],inconclusive: 7.45%
same,Potency,[5],inactive
same,Potency,[11],"inconclusive: 3.86 µM [cytotoxic, single point]"
C=CC(=O)OCCCCCCCC(C)C,Potency,[12],inactive
CCCCNCC(O)c1ccc(O)cc1 (centres undefined),Potency,[13],inactive
same,max activation,[9],inactive: -0.163%
C=C(Cl)CCl,Potency,[4],inactive
same,"activity, negative = inhibition",[12],inconclusive: 23.4%
same,Potency,[5],inactive
C[C@]12C[C@H]3S[C@H]3C[C@@H]1CC[C@@H]1[C@@H]2CC[C@]2(C)[C@@H](O)CC[C@@H]12,Potency,[7],"inconclusive: 2.29 µM [activator, full curve]"
same,Potency,[14],active: 0.256 µM [inconclusive]
same,"activity change, negative = inhibition",[8],inconclusive: -4.91% [at 32.5 µM]
COCC(=O)N(c1c(C)cccc1C)[C@H](C)C(=O)OC,Potency,[12],inactive
CNC(=S)S,Potency,[8],inactive
same,Potency,[15],"inconclusive: 0.0601 µM [cytotoxic, full curve, poor fit]"
same,"activity change, negative = inhibition",[10],inconclusive: 23.5%
same,Potency,[11],inactive
Clc1ccc(C(Cn2ccnc2)OCc2csc3c(Cl)cccc23)c(Cl)c1 (centres undefined),Potency,[9],"inconclusive: 8.91 µM [activator, partial curve]"
C#CCN1CC(=O)N(COC(=O)C2C(C=C(C)C)C2(C)C)C1=O (centres undefined),Potency,[6],inactive
same,Potency,[3],inactive
same,max activation,[9],inactive: 7.13%
C/C(=C\c1csc(C)n1)[C@@H]1C[C@@H]2O[C@]2(C)CCC[C@H](C)[C@H](O)[C@@H](C)C(=O)C(C)(C)[C@@H](O)CC(=O)O1,Potency,[14],"inconclusive: 0.756 µM [activator, full curve, poor fit]"
same,"activity change, negative = inhibition",[8],inconclusive: -20.4%
same,Potency,[9],active: 10 µM
